According to PubChem BioAssay AID463173 (ICCB-Longwood Screening Facility, Harvard Medical School, 2010):
The whole screen tested about 52,000 compounds, of which about 1,700 (3.3%) were called active. Rule as the data show it: active = survival mostly below about 52% (no sharp cut-off); inactive = mostly above about 56%. This is one part of the list.

Test system: Wild type
Experiment: S. aureus survival, RN4220 and DeltatarO strains – OD600, teichoic acid synthesis inhibitors, primary screen (AID 463173)
Conditions: S. aureus RN4220 wild type/DeltatarO growth, OD600, 18 h, active compounds read low, screened at 18.75 µg/mL (by protocol)

Compound | survival
COCCCn1c(=N)c(C(=O)NCc2ccco2)cc2c(=O)n3ccccc3nc21 | inactive: 128%
Cc1cccc(C)c1NC(=O)NCCc1c[nH]c2ccccc12 | inactive: 86%
COc1ccccc1CNC(=O)CCn1nc(C)c2c(C)n(-c3ccccc3)nc2c1=O | inactive: 73%
O=C(c1ccccc1NS(=O)(=O)c1cccc2nsnc12)N1CCOCC1 | inactive: 111%
CCCCN(CC)C(=O)CSc1nc2n[nH]c(C)c2c(=N)n1-c1cccc(OC)c1 | inactive: 120%
Cc1oc(-c2ccc(Cl)cc2)nc1CS(=O)CC(=O)N1CCN(c2cccc(C(F)(F)F)c2)CC1 (centres undefined) | inactive: 80%
COc1cccc(N2CCN(c3ncnc4c3nc3n4CCCCC3)CC2)c1 | active: -3%
O=S(=O)(c1ccccc1)c1nnn2c1nc(NCc1ccc(F)cc1)c1sccc12 | inactive: 96%
Brc1ccc(-c2nc3ccccn3c2Nc2ccc3c(c2)OCCO3)o1 | inactive: 63%
Cc1cccc(N(C)C(=O)CCS(=O)(=O)c2ccc3c(c2)oc(=O)n3C)c1 | inactive: 71%
CCOC(=O)c1c(S(=O)(=O)N2CCC(C(=O)NCc3ccc(F)cc3)CC2)c(C)n(C)c1C | inactive: 85%
CN(C)S(=O)(=O)c1ccc2c(c1)N(CC(=O)Nc1ccc(OC(F)(F)F)cc1)C(=O)CS2 | inactive: 71%
C=Cc1ccc(Cn2c(C(=O)O)c(CNC3CCCC3)c3ccc(C)cc32)cc1 | inactive: 71%
COc1ccc(OCC(=O)NC2CC(=O)N(c3cccc(OC)c3)C2)cc1 (centres undefined) | active: -3%
O=C(/C=C/c1ccco1)Nc1cccc(-c2nc3ccccc3o2)c1 | inactive: 107%
CCCN(CCC)CC(O)Cn1cc(/C=C/C(=O)c2ccc(C)cc2)c2ccccc21 (centres undefined) | active: -1%
CC(C(=O)NCc1ccc(Cl)cc1)n1ccc2cc(S(=O)(=O)N3CCCCCC3)ccc21 (centres undefined) | inactive: 124%
COc1ccc(NC(=O)c2cc(S(=O)(=O)N3CCCCCC3)cn2C)c(OC)c1 | inactive: 77%
O=C1c2cccc3c(N4CCCC4)ccc(c23)C(=O)N1c1ccccc1 | inactive: 108%
COc1ccc(OC)c(CNC(=O)c2c3c(nc4ccccc24)C(=O)N(C2CCCCC2)C3)c1 | inactive: 74%
O=C(NCc1ccccc1Cl)C1CCCN(S(=O)(=O)c2cccc3nsnc23)C1 (centres undefined) | inactive: 83%
CCOC(=O)c1c(C)[nH]c(C)c1S(=O)(=O)N1CCC(C(=O)N2CCN(c3ccccc3)CC2)CC1 | inactive: 72%
CCC(=O)N1CCc2cc(Br)cc(S(=O)(=O)N3CCN(c4ccc(C)cc4)C(C)C3)c21 (centres undefined) | inactive: 139%

Compound | survival
Cc1ccccc1-c1noc(-c2cccnc2NCc2ccco2)n1 | inactive: 79%
CC(=O)N1CCc2cc(C(=O)C[n+]3ccccc3)ccc21 | inactive: 93%
Clc1ccc2[nH]c3nc4ccccc4nc3c2c1 | inactive: 104%
CCOC(=O)c1c(C)[nH]c(C)c1S(=O)(=O)N1CCC(C(=O)N2CCN(c3cccc(Cl)c3)CC2)CC1 | inactive: 67%
CCOC(=O)c1cccc(NC(=O)NCc2cccn2Cc2ccccc2)c1 | inactive: 123%
Cc1ccc2occ(CC(=O)N(Cc3ccccc3Cl)C3CCS(=O)(=O)C3)c2c1 (centres undefined) | inactive: 83%
CC1CCC(Nc2nc3c(-c4ccc(Cl)cc4)nnn3c3ccccc23)CC1 (centres undefined) | inactive: 25%
Cc1ccc(Cn2cc(CCC(=O)NC3CCC(C)CC3)c3ccccc32)cc1 (centres undefined) | inactive: 98%
CC(=O)c1ccc(NC(=O)CN2C(=O)CCc3ccccc32)cc1 | inactive: 84%
CCn1c(SC)nnc1C1CCCN1CC(=O)N1CCN(Cc2ccc3c(c2)OCO3)CC1 (centres undefined) | inactive: 101%
O=C(CSc1oc(-c2ccccc2)nc1S(=O)(=O)c1ccc(Cl)cc1)Nc1ccc(F)cc1 | inactive: 176%
CC(=O)Nc1ccc(/C=C/c2nc(-c3ccccc3O)n(-c3ccccc3)n2)cc1 | inactive: 86%
O=C(NCc1cccnc1)c1cnn2c(C(F)F)cc(-c3ccccc3)nc12 | inactive: 107%
COc1ccccc1CNS(=O)(=O)c1ccc2c(c1)NC(=O)C(C)C(=O)N2 (centres undefined) | inactive: 89%
Cn1c(=O)oc2cc(S(=O)(=O)N3CCCC(C(=O)NCCc4ccc(Cl)cc4)C3)ccc21 (centres undefined) | inactive: 90%
Cc1cccc(-c2nc(C)c(CCNC(=O)C(=O)Nc3cccc(Cl)c3C)s2)c1 | inactive: 68%
O=C(Cn1cc(SCc2ccc(C(F)(F)F)cc2)c2ccccc21)N1CCOCC1 | inactive: 71%
Cc1ccc(-c2nc(-c3cc4c([nH]c3=O)CC(C)(C)CC4=O)sc2C)cc1 | inactive: 62%
CCCCSc1nc(-c2ccc(OC)cc2)ccc1C#N | inactive: 28%
COC(=O)c1ccccc1NC(=O)Cn1c(CCC(=O)O)ccc1-c1cccs1 | inactive: 72%
Cc1ccc2c(c1)c1c3n2CCN(C(=O)Cn2c(-c4ccccc4)noc2=O)C3CCC1 (centres undefined) | inactive: 103%
O=C(NCc1ccccc1)c1cc2sccc2n1Cc1ccc(Cl)cc1 | inactive: 95%
COC(=O)CSc1ncc2c(n1)-c1ccccc1N(Cc1ccccc1C)S2(=O)=O | inactive: 124%

Compound | survival
CCOc1ccc(N(C)C(=O)CS(=O)(=O)c2cccc3nsnc23)cc1 | inactive: 102%
COc1ccccc1N1CCN(C(=O)C(CCSC)NS(=O)(=O)c2ccc3c(c2)oc(=O)n3C)CC1 (centres undefined) | inactive: 79%
CC(C)Oc1ccc(CNC(=O)CCCN2C(=O)CCn3nc(-c4cccn4C)cc32)cc1 | inactive: 78%
COc1ccc2nc3oc(C(=O)N4CCN(c5cc(C)ccc5C)CC4)cc3cc2c1 | inactive: 123%
CCC(=O)N1CCc2cc(S(=O)(=O)CCC(=O)Nc3ccc(OC(F)(F)F)cc3)ccc21 | inactive: 78%
COc1ccc(CC(=O)Nc2sc3c(c2C(=O)Nc2cccc(Cl)c2)CCCCC3)cc1 | inactive: 77%
Cc1nn(-c2ccccc2)c2c1N(CCCC(=O)NCc1ccc(N(C)C)cc1)C(=O)CS2 | inactive: 82%
O=C(c1ccco1)n1nc(-c2ccccc2)nc1NCc1ccc(Cl)cc1 | inactive: 85%
CCC(=O)N1c2ccccc2CC1C(=O)N1CCN(c2cccc(Cl)c2)CC1 (centres undefined) | inactive: 68%
CCN(CC)N=Nc1ccc(S(=O)(=O)Nc2nc(C)cc(C)n2)cc1 | inactive: 112%
CCc1ccc(NCc2cc3ccc(OC)cc3n(CC(=O)Nc3ccc(F)cc3F)c2=O)cc1 | inactive: 71%
Cc1nn2c(=O)cc(COC(=O)c3ccco3)nc2s1 | inactive: 72%
COc1cccc(CNCCSc2nnnn2C)c1OCc1ccccc1Cl | inactive: 86%
O=C(Nc1ccc(F)cc1)N1CCN(c2ccccc2F)CC1 | inactive: 151%
CCc1cc2ccccc2nc1Cl | inactive: 101%
COc1cccc(CNS(=O)(=O)c2ccc3c(c2)CCN3C(=O)C2CCC2)c1 | inactive: 68%
CCOC(=O)c1ccc(-n2c(CCC(=O)O)ccc2-c2ccc(Br)cc2)cc1 | inactive: 65%
COc1ccc(Cn2c(SCC(=O)NCc3ccc(Cl)cc3)nc3ccsc3c2=O)cc1 | inactive: 77%
Cc1cc(=O)[nH]c2nnc(SCc3ccc(F)cc3)n12 | inactive: 68%
COc1ccc(N2C(=O)CS(=O)(=O)C23C(=O)N(Cc2cccc(F)c2)c2ccccc23)cc1OC (centres undefined) | inactive: 72%
Cc1ccc(C)c(S(=O)(=O)c2nnn3c2nc(Nc2ccc(C)c(C)c2)c2sccc23)c1 | inactive: 93%
O=C(OCC1CCNCC1)c1ccc2c(c1)OCO2 | inactive: 117%
O=C(NCc1cccs1)c1ccc(Cn2c(SCc3ccccc3)nc3cccnc32)cc1 | inactive: 73%

Compound | survival
O=C(Nc1c(C(=O)N2CCN(c3ccccc3)CC2)oc2ccccc12)c1ccc(Br)o1 | inactive: 81%
CC1CN(CN2C(=O)CCC2=O)CC(C)O1 (centres undefined) | inactive: 116%
Cc1cc(Cl)ccc1OCC(=O)Nc1c(Cl)ccc2nsnc12 | inactive: 96%
Cc1ccc(NC(=O)CNC2CCCCC2)cc1Cl | inactive: 100%
COc1ccccc1-c1nc(SCC(=O)NCc2ccc(C)cc2)c2c(=O)n(C)c(=O)n(C)c2n1 | inactive: 68%
Cc1ccc(-c2ccc(=O)n(CC(=O)Nc3ccc(C)cc3Cl)n2)cc1 | inactive: 80%
O=C(CSc1nnc(CNc2ccc(F)cc2)o1)N1c2ccccc2Sc2ccccc21 | inactive: 105%
S=c1[nH]nc(-c2ccncc2)n1Cc1ccccc1 | inactive: 98%
O=C(COc1ccccc1F)Nc1ccc2oc(-c3cccc(Cl)c3)nc2c1 | inactive: 113%
Cc1cccc(CN2C(=O)N(c3ccc(C(C)C)cc3)S(=O)(=O)c3ccccc32)c1 | inactive: 92%
COc1cccc(/C=C/c2nc(C#N)c(NCCc3ccccc3)o2)c1 | inactive: 87%
COc1ccc(C2C=C(c3ccccc3)Nc3nc(NC(=O)c4cccc([N+](=O)[O-])c4)nn32)cc1 (centres undefined) | inactive: 79%
COc1ccc(C(=O)Nc2ccc3oc(-c4cccnc4)nc3c2)cc1 | inactive: 75%
Clc1cccc(N2CCN(c3nc4ccccc4n4nnnc34)CC2)c1 | inactive: 77%
Cc1ccc(OCC(=O)Nc2cccc(-c3nc4ccccc4s3)c2)cc1 | inactive: 55%
C=C(C)Cn1c(CO)nc2ccccc21 | inactive: 92%
COc1cccc(CNC(=O)c2sc3nc(C)cc(C)c3c2-n2cccc2)c1OC | inactive: 93%
CCOC(=O)c1ccc(NC(=O)C2CCCN(c3ncnc4onc(-c5ccc(F)cc5)c34)C2)cc1 (centres undefined) | inactive: 67%
CCOc1ccc(NC(=O)C2CC(=O)NC(=Nc3ccc(Cl)c(Cl)c3)S2)cc1 (centres undefined) | inactive: 78%
Cc1c(C(=O)NCc2ccccc2)sc2nc3n(c(=O)c12)CCCCC3 | inactive: 79%
